According to patent US20220348665A1 (ABL BIO, published 2022):

B1: Hu11F11(ver.2)-VH32 (bivalent bispecific antibody) (bispecific antibody)
heavy: EVQLVESGGGLVQPGGSLRLSCATSGFTFSDFYMEWVRQPPGKRLEWIAASRNKANDYTTEYSASVKGRFTVSRDDSKSSLYLQMNSLRAEDTAIYYCARDAHGKPFAYWGQGTTVTVSS[human IgG1 constant region cut from this listing]GGGGSGGGGSGGGGSQSVLTQPPSASGTPGQRVTISCTGSSSNIGSNDVSWYQQLPGTAPKLLIYANSNRPSGVSDRFSGSKSGTSASLAISGLRSEDEADYYCGAWDDSLNGYVFGCGTKLTVLGGGGSGGGGSGGGGSGGGGSEVQLLESGGGLVQPGGSLRLSCAASGFTFSSYAMSWVRQAPGKCLEWVSAISYDNGNTYYADSVKGRFTISRDNSKNTLYLQMNSLRAEDTAVYYCAKGVLTTLANWFDYWGQGTLVTVSS
light: DIVMTQSPSSLAVSLGERVTMS[about 80 residues cut from this listing][about 120 residues cut from this listing]
notes: also called hu11F11x1564_VH32
B2: Hu11F11(ver.2)-VH7 (bivalent bispecific antibody) (bispecific antibody)
heavy: EVQLVESGGGLVQPGGSLRLSCATSGFTFSDFYMEWVRQPPGKRLEWIAASRNKANDYTTEYSASVKGRFTVSRDDSKSSLYLQMNSLRAEDTAIYYCARDAHGKPFAYWGQGTTVTVSS[human IgG1 constant region cut from this listing]GGGGSGGGGSGGGGSQSVLTQPPSASGTPGQRVTISCTGSSSNIGSNDVSWYQQLPGTAPKLLIYANSNRPSGVSDRFSGSKSGTSASLAISGLRSEDEADYYCGAWDDSLNGYVFGCGTKLTVLGGGGSGGGGSGGGGSGGGGSEVQLLESGGGLVQPGGSLRLSCAASGFTFSSYAMSWVRQAPGKCLEWVSAISYDNGSTYYADSVKGRFTISRDNSKNTLYLQMNSLRAEDTAVYYCAKGVLTTLMNWFDYWGQGTLVTVSS
light: DIVMTQSPSSLAVSLGERVTMS[about 80 residues cut from this listing][about 120 residues cut from this listing]
notes: also called hu11F11x1564_VH7
B3: Hu11F11(ver.2)-VH2 (bivalent bispecific antibody) (bispecific antibody)
heavy: EVQLVESGGGLVQPGGSLRLSCATSGFTFSDFYMEWVRQPPGKRLEWIAASRNKANDYTTEYSASVKGRFTVSRDDSKSSLYLQMNSLRAEDTAIYYCARDAHGKPFAYWGQGTTVTVSS[human IgG1 constant region cut from this listing]GGGGSGGGGSGGGGSQSVLTQPPSASGTPGQRVTISCTGSSSNIGSNDVSWYQQLPGTAPKLLIYANSNRPSGVSDRFSGSKSGTSASLAISGLRSEDEADYYCGAWDDSLNGYVFGCGTKLTVLGGGGSGGGGSGGGGSGGGGSEVQLLESGGGLVQPGGSLRLSCAASGFTFSSYAMSWVRQAPGKCLEWVSAISGSNGNTYYADSVKGRFTISRDNSKNTLYLQMNSLRAEDTAVYYCAKGVLTTLANWFDYWGQGTLVTVSS
light: DIVMTQSPSSLAVSLGERVTMS[about 80 residues cut from this listing][about 120 residues cut from this listing]
notes: also called hu11F11x1564_VH2
B4: Hu11F11(ver.2)-VH9 (bivalent bispecific antibody) (bispecific antibody)
heavy: EVQLVESGGGLVQPGGSLRLSCATSGFTFSDFYMEWVRQPPGKRLEWIAASRNKANDYTTEYSASVKGRFTVSRDDSKSSLYLQMNSLRAEDTAIYYCARDAHGKPFAYWGQGTTVTVSS[human IgG1 constant region cut from this listing]GGGGSGGGGSGGGGSQSVLTQPPSASGTPGQRVTISCTGSSSNIGSNDVSWYQQLPGTAPKLLIYANSNRPSGVSDRFSGSKSGTSASLAISGLRSEDEADYYCGAWDDSLNGYVFGCGTKLTVLGGGGSGGGGSGGGGSGGGGSEVQLLESGGGLVQPGGSLRLSCAASGFTFSSYDMSWVRQAPGKCLEWVSAISGDNGNTYYADSVKGRFTISRDNSKNTLYLQMNSLRAEDTAVYYCAKGVLTTLMNWFDYWGQGTLVTVSS
light: DIVMTQSPSSLAVSLGERVTMS[about 80 residues cut from this listing][about 120 residues cut from this listing]
notes: also called hu11F11x1564_VH9
B5: Hu11F11(ver.2)-VH35 (bivalent bispecific antibody) (bispecific antibody)
heavy: EVQLVESGGGLVQPGGSLRLSCATSGFTFSDFYMEWVRQPPGKRLEWIAASRNKANDYTTEYSASVKGRFTVSRDDSKSSLYLQMNSLRAEDTAIYYCARDAHGKPFAYWGQGTTVTVSS[human IgG1 constant region cut from this listing]GGGGSGGGGSGGGGSQSVLTQPPSASGTPGQRVTISCTGSSSNIGSNDVSWYQQLPGTAPKLLIYANSNRPSGVSDRFSGSKSGTSASLAISGLRSEDEADYYCGAWDDSLNGYVFGCGTKLTVLGGGGSGGGGSGGGGSGGGGSEVQLLESGGGLVQPGGSLRLSCAASGFTFSSYDMSWVRQAPGKCLEWVSAISYDNGSTYYADSVKGRFTISRDNSKNTLYLQMNSLRAEDTAVYYCAKGVLTTLMNWFDSWGQGTLVTVSS
light: DIVMTQSPSSLAVSLGERVTMS[about 80 residues cut from this listing][about 120 residues cut from this listing]
notes: also called hu11F11x1564_VH35
B6: Hu11F11(ver.2)-F06 (bispecific antibody, valency not printed) (bispecific antibody)
heavy: EVQLVESGGGLVQPGGSLRLSCATSGFTFSDFYMEWVRQPPGKRLEWIAASRNKANDYTTEYSASVKGRFTVSRDDSKSSLYLQMNSLRAEDTAIYYCARDAHGKPFAYWGQGTTVTVSS[human IgG1 constant region cut from this listing]GGGGSGGGGSGGGGSQSVLTQPPSASGTPGQRVTISCTGSSSNIGSNDVSWYQQLPGTAPKLLIYANSNRPSGVSDRFSGSKSGTSASLAISGLRSEDEADYYCGTWAGSLNGYVFGCGTKLTVLGGGGSGGGGSGGGGSGGGGSEVQLLESGGGLVQPGGSLRLSCAASGFTFSSYDMSWVRQAPGKCLEWVSAISYDNGNTYYADSVKGRFTISRDNSKNTLYLQMNSLRAEDTAVYYCAKGVLTTLMNWFDYWGQGTLVTVSS
light: DIVMTQSPSSLAVSLGERVTMS[about 80 residues cut from this listing][about 120 residues cut from this listing]
B7: Hu11F11(ver.2)-C04 (bispecific antibody) (bispecific antibody)
heavy: EVQLVESGGGLVQPGGSLRLSCATSGFTFSDFYMEWVRQPPGKRLEWIAASRNKANDYTTEYSASVKGRFTVSRDDSKSSLYLQMNSLRAEDTAIYYCARDAHGKPFAYWGQGTTVTVSS[human IgG1 constant region cut from this listing]GGGGSGGGGSGGGGSQSVLTQPPSASGTPGQRVTISCTGSSSNIGSNDVSWYQQLPGTAPKLLIYANSNRPSGVSDRFSGSKSGTSASLAISGLRSEDEADYYCGAWEQWLNGYVFGCGTKLTVLGGGGSGGGGSGGGGSGGGGSEVQLLESGGGLVQPGGSLRLSCAASGFTFSSYDMSWVRQAPGKCLEWVSAISYDNGNTYYADSVKGRFTISRDNSKNTLYLQMNSLRAEDTAVYYCAKGVLTTLMNWFDYWGQGTLVTVSS
light: DIVMTQSPSSLAVSLGERVTMS[about 80 residues cut from this listing][about 120 residues cut from this listing]
notes: also called Hu11F11(ver.2)-004

target: T1, human IGF1R extracellular domain, recombinant, His tag at C-terminus (human, UniProt P08069 31-932); assay: category of binding affinity; basis not stated, follows the ELISA of Table 18
T1 construct: also called human IGF1R ECD; ECD of IGF1R

fold decrease of binding affinity (against parental 1564 clone)	Binder
≥ 50 fold	B1
≥ 50 fold	B2
≥ 50 fold	B3

target: T1, human IGF1R extracellular domain, …; assay: ELISA on ECD of IGF1R, bispecific form

EC50	Binder
121 nM	B1
6.06 nM	B4
402 nM	B2
0.167 nM	B5
0.147 nM	B6
0.15 nM	B7
135 nM	B3

target: T2, human IGF1R, endogenous, on the surface of breast cancer cell lines (MCF-7, JIMT-1, BT474) (human, UniProt P08069 31-1367); assay: FACS on MCF-7 cells, antibody 10 ug/mL (2nd Ab only 2.86, not treated 1.88)
T2 construct: also called endogenous IGF1R on the cell surface; MCF-7 cell line

GeoMean, Internalization at 37° C.	Binder
3.24	B1
5.01	B4
3.84	B2
7.28	B5
3.19	B3
